Our source for the AUC(0-t), Cmax and IC50 values is patent US20240376128A1, “N-CYCLOPROPYLPYRIDO [4, 3-D] PYRIMIDIN-4-AMINE DERIVATIVES AND USES THEREOF” (Jacobio Pharmaceuticals Co., Ltd., priority 2021, published 2024).

Series [1] is described as follows: Mouse pharmacokinetic study. It counts as in vivo. The note with it: female, Balb/c mouse, prodrug dosed po, equal to 10 mg/kg of parent drug, analyte = dosed prodrug in plasma; for AUC(0-t): read-out: AUC0-8h, analyte: prodrug; for Cmax: read-out: Cmax, analyte: prodrug. The protocol: The purpose of this study was to evaluate the pharmacokinetic properties of compounds in Balb/c mouse (♀) following single dose administration. Six mice were needed for each compound and the six mice were divided into two groups (n=3/group), group A and group B. Mice in group A were treated with a single 3 mg/kg dose of compound (iv). Mice in group B were treated with a single 10 mg/kg dose of compound (po). For each mouse in group A, blood samples were collected at the time point of 0.083, 0.5, 1, 2, 4 and 8 h post-dose. For each mouse in group B, blood samples were collected at the time point of 0.5, 1, 2, 4, 6 and 8 h post-dose. Blood samples were placed on ice until centrifugation to obtain plasma samples. The plasma samples were stored at −80° C. until analysis. The concentration of compound in plasma samples was determined using a LC-MS/MS method.
For the prodrug, only the oral PK study was performed and the dosage was adjusted to be equal to 10 mg/kg of parent drug. The concentrations of both prodrug and parent drug in plasma were determined using a LC-MS/MS method.

Series [2] deals with K-Ras G12D (Homo sapiens, UniProt P01116, G12D). Briefly: GTP-K-Ras (GppNp-K-Ras) and cRAF interaction assay, HTRF. The note with it: read-out: Biochemical assays, IC50, K-Ras G12D GppNp. The text has this:
GppNp is an analog of GTP.
On the technique in general: Time-resolved FRET reads energy transfer from a long-lived donor to a nearby acceptor.

Series [3] has as its system K-Ras mutant and K-Ras WT cell lines indicated in Table 20. Briefly: 2D cell growth inhibition assay (CellTiter-Glo, 6 days). Format: cell-based. The protocol:
Each of cells in culture medium was plated in TC-treated 96-well plates at a density indicated in Table 20 and incubated in a cell incubator overnight.

Series [4] concerns SW620 cell line (K-Ras G12V). Briefly: Phospho-ERK1/2(THR202/TYR204) HTRF assay. It counts as cell-based. Particulars: Homo sapiens, SW-620; SW620 cells (K-Ras G12V), 2 hours incubation; read-out: p-ERK, IC50(nM) SW620.
The target in series [5] is K-Ras WT (Homo sapiens, UniProt P01116). Briefly: SOS1 catalyzed nucleotide exchange assay (GDP form K-Ras), TR-FRET. Particulars: read-out: Biochemical assays, IC50, K-Ras WT GDP. The procedure: The parameters were F486: Excitation 340 nm, Emission 486 nm, Lag time 100 pas, Integration time 200 pas; F515: Excitation 340 nm, Emission 515 nm, Lag time 100 pas, Integration time 200 pas. TR-FRET ratios for each individual wells were calculated by equation: TR-FRET ratio=(Signal F515/Signal F486)*10000.

Series [6] relates to AGS cell line (K-Ras G12D). The series can be described thus: Phospho-ERK1/2(THR202/TYR204) HTRF assay. Format: cell-based. Particulars: Homo sapiens; AGS cells (K-Ras G12D), 2 hours incubation; read-out: p-ERK, IC50(nM) AGS.
Setting [7] is: Homo sapiens, SW-620, 144 h, SW620 (K-Ras G12V), absolute IC50, read-out: Cell Growth Inhibition, IC50, SW620.
The mark [8] stands for this setting: 144 h, AGS (K-Ras G12D), absolute IC50, read-out: Cell Growth Inhibition, IC50, AGS.
[9] abbreviates: Homo sapiens, ASPC1, 144 h, AsPC-1 (K-Ras G12D), absolute IC50, read-out: Cell Growth Inhibition, IC50, AsPC-1.

Read-outs that look alike come from different tables or passages of the source.

On to `[2H]C([2H])([2H])N(c1nc(OC[C@@]23CCCN2C[C@H](F)C3)nc2c(F)c(-c3cc(OC(=O)NC)cc4ccc(F)c(C#C)c34)ncc12)C1CC1` [Compound 8, 4-(4-(cyclopropyl(methyl-d3)amino)-8-fluoro-2-(((2R,7aS)-2-fluorotetrahydro-1H-pyrrolizin-7a(5H)-yl)methoxy)pyrido[4,3-d]pyrimidin-7-yl)-5-ethynyl-6-fluoronaphthalen-2-yl methylcarbamate], for which, in series [1], the AUC(0-t) is 18300 ng·h/mL and the maximum concentration (Cmax) was 4960 ng/mL. Also, the half-maximal inhibitory concentration (IC50) in series [2] worked out at 801 nM.
As for `C#Cc1c(F)ccc2cc(O)cc(-c3ncc4c(NC5(C)CC5)nc(OC[C@@]56CCCN5C[C@H](F)C6)nc4c3F)c12` [Compound 10, 5-ethynyl-6-fluoro-4-(8-fluoro-2-(((2R,7aS)-2-fluorotetrahydro-1H-pyrrolizin-7a(5H)-yl)methoxy)-4-((1-methylcyclopropyl)amino)pyrido[4,3-d]pyrimidin-7-yl)naphthalen-2-ol], the 50% inhibitory concentration (IC50) was found to be 123 nM in series [3] (setting [7]), 64.7 nM in series [4], 519 nM in series [2] and 29.2 nM in series [5].
As for `C#Cc1c(F)ccc2cc(O)cc(-c3ncc4c(N(C)C5CC5(F)F)nc(OC[C@@]56CCCN5C[C@H](F)C6)nc4c3F)c12` (stereo partly drawn) [Compound 11, 4-(4-((2,2-difluorocyclopropyl)(methyl)amino)-8-fluoro-2-(((2R,7aS)-2-fluorotetrahydro-1H-pyrrolizin-7a(5H)-yl)methoxy)pyrido[4,3-d]pyrimidin-7-yl)-5-ethynyl-6-fluoronaphthalen-2-ol 2,2,2-trifluoroacetic acid], the IC50 came out at 50.5 nM in series [3] (setting [7]), 23 nM in series [4], 252 nM in series [2] and 19 nM in series [5].
Take `C#Cc1c(F)ccc2cc(O)cc(-c3ncc4c(N(C)[C@H]5C[C@H]5F)nc(OC[C@@]56CCCN5C[C@H](F)C6)nc4c3F)c12` [Compound 12, 5-ethynyl-6-fluoro-4-(8-fluoro-4-(((1S,2R)-2-fluorocyclopropyl)(methyl)amino)-2-(((2R,7aS)-2-fluorotetrahydro-1H-pyrrolizin-7a(5H)-yl)methoxy)pyrido[4,3-d]pyrimidin-7-yl)naphthalen-2-ol 2,2,2-trifluoroacetic acid]: the 50% inhibitory concentration (IC50) in series [3] (setting [8]) was found to be 406 nM; in series [3] (setting [9]) it was 2930 nM; in series [3] (setting [7]), 144 nM; in series [4] it was 64.4 nM; in series [2] it was 460 nM; in series [5], 43.4 nM.
Turning to `C#Cc1c(F)ccc2cc(O)cc(-c3ncc4c(N(CC(F)F)C5CC5)nc(OC[C@@]56CCCN5C[C@H](F)C6)nc4c3F)c12` [Compound 17, 4-(4-(cyclopropyl(2,2-difluoroethyl)amino)-8-fluoro-2-(((2R,7aS)-2-fluorotetrahydro-1H-pyrrolizin-7a(5H)-yl)methoxy)pyrido[4,3-d]pyrimidin-7-yl)-5-ethynyl-6-fluoronaphthalen-2-ol 2,2,2-trifluoroacetic acid], the IC50 in series [6] stood at 182 nM; in series [3] (setting [8]) it was 94.2 nM; in series [3] (setting [9]), 555 nM; in series [3] (setting [7]), 110 nM; in series [4], 54.8 nM; in series [2] it was 574 nM.
For the molecule `C#Cc1c(F)ccc2cc(OC(=O)NC)cc(-c3ncc4c(N(C)[C@H]5C[C@@H]5F)nc(OC[C@@]56CCCN5C[C@H](F)C6)nc4c3F)c12.O=C(O)C(F)(F)F` [Compound 20, 5-ethynyl-6-fluoro-4-(8-fluoro-4-(((1S,2S)-2-fluorocyclopropyl)(methyl)amino)-2-(((2R,7aS)-2-fluorotetrahydro-1H-pyrrolizin-7a(5H)-yl)methoxy)pyrido[4,3-d]pyrimidin-7-yl)naphthalen-2-yl methylcarbamate 2,2,2-trifluoroacetic acid], in series [1], the AUC(0-t) was found to be 11900 ng·h/mL and the Cmax is 3480 ng/mL.
Turning to `C#Cc1c(F)ccc2cc(O)cc(-c3ncc4c(NC5CC5C)nc(OC[C@@]56CCCN5C[C@H](F)C6)nc4c3F)c12` (stereo partly drawn) [Compound 22, 5-ethynyl-6-fluoro-4-(8-fluoro-2-(((2R,7aS)-2-fluorotetrahydro-1H-pyrrolizin-7a(5H)-yl)methoxy)-4-((2-methylcyclopropyl)amino)pyrido[4,3-d]pyrimidin-7-yl)naphthalen-2-ol], the IC50 turned out to be 41.6 nM in series [3] (setting [7]), 28.6 nM in series [4], 730 nM in series [2] and 8.39 nM in series [5].
On to `C#Cc1c(F)ccc2cc(O)cc(-c3ncc4c(NC5(CF)CC5)nc(OC[C@@]56CCCN5C[C@H](F)C6)nc4c3F)c12` [Compound 25, 5-ethynyl-6-fluoro-4-(8-fluoro-4-((1-(fluoromethyl)cyclopropyl)amino)-2-(((2R,7aS)-2-fluorotetrahydro-1H-pyrrolizin-7a(5H)-yl)methoxy)pyrido[4,3-d]pyrimidin-7-yl)naphthalen-2-ol], for which the IC50 in series [6] worked out at 305 nM; in series [3] (setting [8]), 243 nM; in series [3] (setting [9]), 2180 nM; in series [3] (setting [7]) it was 97.7 nM; in series [4], 52.1 nM; in series [2], 320 nM.
As to `C#Cc1c(F)ccc2cc(O)cc(-c3nc(Cl)c4c(N(C)C5CC5)nc(OC[C@@]56CCCN5C[C@H](F)C6)nc4c3F)c12` [Compound 33, 4-(5-chloro-4-(cyclopropyl(methyl)amino)-8-fluoro-2-(((2R,7aS)-2-fluorotetrahydro-1H-pyrrolizin-7a(5H)-yl)methoxy)pyridin [4,3-d]pyrimidin-7-yl)-5-ethynyl-6-fluoro-naphthalen-2-ol 2,2,2-trifluoroacetic acid], the IC50 came out at 38.6 nM in series [6]; 97.9 nM in series [3] (setting [8]); 703 nM in series [3] (setting [9]); 71 nM in series [3] (setting [7]); 8.39 nM in series [4]; 657 nM in series [2].
As to `C#Cc1c(F)ccc2cc(O)cc(-c3ncc4c(NC5C6COCC65)nc(OC[C@@]56CCCN5C[C@H](F)C6)nc4c3F)c12` (stereo partly drawn) [Compound 53, 4-(4-((3-oxabicyclo[3.1.0]hexan-6-yl)amino)-8-fluoro-2-(((2R,7aS)-2-fluorotetrahydro-1H-pyrrolizin-7a(5H)-yl)methoxy)pyrido[4,3-d]pyrimidin-7-yl)-5-ethynyl-6-fluoronaphthalen-2-ol], the IC50 turned out to be 37.2 nM in series [3] (setting [7]) and 165 nM in series [4].
Consider `C#Cc1c(F)ccc2cc(O)cc(-c3ncc4c(NC5C6CCCCC65)nc(OC[C@@]56CCCN5C[C@H](F)C6)nc4c3F)c12` (stereo partly drawn) [Compound 55, 4-(4-(bicyclo[4.1.0]heptan-7-ylamino)-8-fluoro-2-(((2R,7aS)-2-fluorotetrahydro-1H-pyrrolizin-7a(5H)-yl)methoxy)pyrido[4,3-d]pyrimidin-7-yl)-5-ethynyl-6-fluoronaphthalen-2-ol], for which the IC50 in series [2] amounted to 1530 nM; in series [5] it was 29.4 nM.
For the molecule `C#Cc1c(F)ccc2cc(O)cc(-c3ncc4c(NC5(COC)CC5)nc(OC[C@@]56CCCN5C[C@H](F)C6)nc4c3F)c12` [Compound 58, 5-ethynyl-6-fluoro-4-(8-fluoro-2-(((2R,7aS)-2-fluorotetrahydro-1H-pyrrolizin-7a(5H)-yl)methoxy)-4-((1-(methoxymethyl)cyclopropyl)amino)pyrido[4,3-d]pyrimidin-7-yl)naphthalen-2-ol], the concentration for half-maximal inhibition (IC50) in series [3] (setting [7]) was 158 nM; in series [4], 65.3 nM; in series [2], more than 1000 nM.

As a reminder, the Cmax is the maximum level reached in the sampled fluid or tissue. In general, IC50 refers to the point on the concentration scale where inhibition reaches its midpoint.
